From PMC4336329 (PLoS ONE, 2015)
Hit rate of the full screen: of about 310,000 compounds, about 14,000 (4.5%) showed an effect of 50% or more. The effect is printed as a negative number. The list shows a part of the results.

These molecules were tested against human ether-à-go-go-related gene (hERG) potassium channel (human, UniProt Q12809) (assay: primary screen, population patch clamp on CHO cells stably expressing hERG).
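Also: peak tail current of the secondary pulse compared with the same well before compound.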

Chain of human ether-à-go-go-related gene (hERG) potassium channel (Q12809 whole entry, looked up): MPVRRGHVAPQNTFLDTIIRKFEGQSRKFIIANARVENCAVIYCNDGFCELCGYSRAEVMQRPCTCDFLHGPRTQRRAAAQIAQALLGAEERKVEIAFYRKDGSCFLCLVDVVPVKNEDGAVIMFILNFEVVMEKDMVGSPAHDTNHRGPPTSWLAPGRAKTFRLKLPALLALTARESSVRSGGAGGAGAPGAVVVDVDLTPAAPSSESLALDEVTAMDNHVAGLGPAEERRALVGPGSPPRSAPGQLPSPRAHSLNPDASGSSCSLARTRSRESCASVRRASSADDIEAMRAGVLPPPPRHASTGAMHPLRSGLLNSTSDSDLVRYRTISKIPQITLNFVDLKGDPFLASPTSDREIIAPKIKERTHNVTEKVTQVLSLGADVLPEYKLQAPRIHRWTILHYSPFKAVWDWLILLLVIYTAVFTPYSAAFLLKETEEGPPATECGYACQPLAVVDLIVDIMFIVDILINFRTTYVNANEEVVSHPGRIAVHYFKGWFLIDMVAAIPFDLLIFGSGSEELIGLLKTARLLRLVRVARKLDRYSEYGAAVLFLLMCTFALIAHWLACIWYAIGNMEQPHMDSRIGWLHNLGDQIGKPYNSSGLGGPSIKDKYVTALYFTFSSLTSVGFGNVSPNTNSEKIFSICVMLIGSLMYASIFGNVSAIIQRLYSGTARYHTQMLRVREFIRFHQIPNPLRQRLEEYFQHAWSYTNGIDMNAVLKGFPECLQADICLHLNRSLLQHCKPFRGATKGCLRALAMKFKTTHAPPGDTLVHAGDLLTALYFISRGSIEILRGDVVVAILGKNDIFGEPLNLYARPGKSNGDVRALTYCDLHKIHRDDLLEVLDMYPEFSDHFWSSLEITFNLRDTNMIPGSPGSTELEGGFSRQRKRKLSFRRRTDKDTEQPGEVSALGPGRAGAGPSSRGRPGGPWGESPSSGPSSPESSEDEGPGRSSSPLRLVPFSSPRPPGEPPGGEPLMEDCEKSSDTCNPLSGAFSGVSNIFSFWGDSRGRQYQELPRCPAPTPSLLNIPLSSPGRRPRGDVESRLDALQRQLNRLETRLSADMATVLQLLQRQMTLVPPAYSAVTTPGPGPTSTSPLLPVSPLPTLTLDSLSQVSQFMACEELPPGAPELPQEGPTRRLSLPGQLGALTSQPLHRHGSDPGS

| SMILES | hERG current change (%, negative = inhibition) at 10uM [%] |
| --- | --- |
| Cl.OC(COCc1ccc(Cl)cc1)CN1CCCCC1 (stereo not shown) | -35.8 |
| COc1ccccc1-c1nc2c(c(SCC(=O)N3CCCCC3)n1)Cc1c(CO)cnc(C)c1O2 | -6.81 |
| Nc1nc(SCC(=O)c2cc(F)ccc2F)n[nH]1 | 12.5 |
| CCOC(=O)Cc1cc(OC)c(OC)cc1Cc1cc(OC)c(OC)cc1CC(=O)OCC | 9.74 |
| COc1ccc(NC(=O)CSc2nnc(Cc3ccccc3)c(=O)n2N)cc1OC | -4.29 |
| COc1ccc(NC(=S)Nc2cccc(Cl)c2)cc1OC | 10.7 |
| Cc1ccccc1Cn1c2ccccc2c2cn[nH]c(=O)c21 | 14.2 |
| NC(=O)[C@@H]1CCCN1C(=O)[C@@H](Cc1cnc[nH]1)NC(=O)[C@@H]1CCC(=O)N1 | -0.464 |
| Cc1ccc(N/N=C(\C#N)C(N)=S)cc1C | -20.6 |
| Cc1ccccc1C(=O)Nc1c(C)[nH]c(=O)[nH]c1=O | 5.89 |
| COc1ccc(/C(C)=N/NC(=O)CNC(=O)C(c2ccccc2)c2ccccc2)c(OC)c1 | -0.824 |
| CC(=O)OC1COC(n2ccc3cc([N+](=O)[O-])ccc32)C(OC(C)=O)C1OC(C)=O (stereo not shown) | -12.2 |
| CN(CCO)C(=O)c1ccc(-c2nn(C)c(=O)c3ccccc23)cc1 | 10.9 |
| COC(=O)c1sccc1NC(=O)c1ccc(OC)c([N+](=O)[O-])c1 | 29.3 |
| CCN(CC)c1ccc(NC(=O)Cn2cc3c(n2)CCC(C)C3)c(C)c1 (stereo not shown) | -3.35 |
| CCc1c(C)[nH]c2nc3ccccc3n2c1=O | 4.86 |
| COc1ccccc1CC(=O)Nc1cccc2c1CCCC2 | -8.33 |
| C/C(=N\NC(=O)CN1CCN(Cc2ccccc2)CC1)c1ccncc1 | -35.8 |
| CSc1ccccc1NC(=O)c1cc(-c2ccco2)on1 | 8.37 |
| C=CCN1C(=O)c2ccc(C(=O)Nc3ccccn3)cc2C1=O | 11.1 |
| Cc1ccc2nc(-c3ccc(NC(=O)c4cccnc4)cc3)oc2c1 | 10.2 |
| Cc1ccc(OCC(=O)N2CCC(C)CC2)c([N+](=O)[O-])n1 | -7.74 |
| O=C1NC2(Nc3ccccc31)C(=O)Nc1ccccc12 (stereo not shown) | 9.7 |

| SMILES | hERG current change (%, negative = inhibition) at 10uM [%] |
| --- | --- |
| COc1ccc(CNC(=O)N[C@H](C(=O)O)C(C)C)cc1OC | 9.5 |
| CC(OC(=O)c1ccc(Cl)nc1)C(=O)NC1(C#N)CCCCC1 (stereo not shown) | -6.98 |
| COc1ccc2oc(C(=O)OC(C)C(=O)N(C)c3ccccc3)c(C)c2c1 (stereo not shown) | -12.3 |
| CCOC(=O)CN(c1ccccn1)S(=O)(=O)c1ccccc1 | -5.87 |
| Cc1cc(C(=O)CSc2nc(N)cc(=O)[nH]2)ccc1F | 16.1 |
| CN(C)c1ccc(NC(=O)CCCc2ccccc2)cc1 | 1.39 |
| O=C(c1cccn(Cc2ccc(C(F)(F)F)cc2)c1=O)N1CCOCC1 | 7.12 |
| N#CN(CC(N)=O)c1nc(N2CCCCC2)nc(N2CCCCC2)n1 | 19.9 |
| Cc1cc(C)nc(N2CCCC(C(=O)NCCc3ccc(F)cc3)C2)n1 (stereo not shown) | -3.41 |
| C[C@@]12CCC=C[C@H]1[C@H](c1ccc3ccccc3c1/C=C/c1ccccc1)N(Cc1ccccc1)C2=O | -5.13 |
| O=C(Nc1cccc(F)c1)Nc1cccc(Cl)c1 | 18.5 |
| CCNC(=O)CCc1nc(-c2ccc(C(C)(C)C)cc2)no1 | -23.2 |
| O=C(Cc1cccs1)NCc1cccc(Br)c1 | 4.53 |
| c1ccc(CN=C2NN=C(c3ccccc3)CS2)cc1 | 3.72 |
| CCC1Sc2ccc(S(=O)(=O)CCC(=O)NCc3cccs3)cc2NC1=O (stereo not shown) | 7.28 |
| Cc1ncc(/C=C2\C(=O)Nc3ccccc32)[nH]1 | 5.07 |
| Cc1ccccc1Cn1c(-c2cncs2)nc2ccccc21 | -23.5 |
| O=C(O)C1Cc2ccccc2CN1C(=O)CCl (stereo not shown) | 12 |
| CC(C)(Oc1ccc(Cl)cc1)C(=O)N1CCC(C(N)=O)CC1 | 4.64 |
| O=C(O)CN(c1ccccc1)C1SC(=O)NC1=O (stereo not shown) | 10.1 |
| O=C(O)c1ccc(NC(=O)c2cccc(C(=O)Nc3ccc(C(=O)O)cc3)c2)cc1 | 7.31 |
| O=C(CSc1ccc2nnc(-c3ccccc3)n2n1)NCC1CCCO1 (stereo not shown) | -22.2 |
| O=C1CN(C(=O)c2cc(F)cc(F)c2)c2ccccc2N1 | -1.62 |
